Results reported in the supplement of paper PMC9588766.
Where a name gives a salt, the structure may show the parent alone. The full ranking holds about 1,900 compounds; the median of “cell viability of compound + 1 nM pemigatinib relative to pemigatinib-only (DMSO) wells” is about 0.95, and the lowest 2% start at about 0.22. This is one part of the list.

The compounds below were run on PDC-DUC18828 (assay: cell viability of compound + 1 nM pemigatinib relative to pemigatinib-only (DMSO) wells (fraction); PDC-DUC18828 is a patient-derived cholangiocarcinoma cell line; higher = less growth inhibition). Details: first compound 1 µM; pemigatinib concentration 1 nM; 72 h.
Description: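 Selleck Bioactive library screen in the patient-derived FGFR2 fusion-positive ICC cell line PDC-DUC18828 (500 cells/well). Each compound was tested at 1 uM with 1 nM pemigatinib, in triplicate, for 72 h. Viability was read by CellTiter-Glo and normalised to plate DMSO controls. Value is the paper's averaged normalised viability.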

Structure (SMILES) | cell viability
OCCn1cc(-c2ccc3c(c2)CC/C3=N\O)c(-c2ccncc2)n1 + CCN1C(=O)N(c2c(F)c(OC)cc(OC)c2F)Cc2cnc3[nH]c(CN4CCOCC4)cc3c21 [pemigatinib] | 1.08
CC[C@H]1OC(=O)[C@H](C)[C@@H](O[C@H]2C[C@@](C)(OC)[C@@H](O)[C@H](C)O2)[C@H](C)[C@@H](O[C@@H]2O[C@H](C)C[C@H](N(C)C)[C@H]2O)[C@](C)(O)C[C@@H](C)CN(C)[C@H](C)[C@@H](O)[C@]1(C)O [Azithromycin] + CCN1C(=O)N(c2c(F)c(OC)cc(OC)c2F)Cc2cnc3[nH]c(CN4CCOCC4)cc3c21 [pemigatinib] | 1.02
CCN(CC)CCNC(=O)c1ccc(N)cc1 [Procainamide HCl] + CCN1C(=O)N(c2c(F)c(OC)cc(OC)c2F)Cc2cnc3[nH]c(CN4CCOCC4)cc3c21 [pemigatinib] | 0.933
NC[C@H](O)c1ccc(O)c(O)c1 [Noradrenaline bitartrate monohydrate] + CCN1C(=O)N(c2c(F)c(OC)cc(OC)c2F)Cc2cnc3[nH]c(CN4CCOCC4)cc3c21 [pemigatinib] | 1.04
CC(C=CC1(O)C(C)=CC(=O)CC1(C)C)=CC(=O)O (configuration not stated) [Abscisic Acid (Dormin)] + CCN1C(=O)N(c2c(F)c(OC)cc(OC)c2F)Cc2cnc3[nH]c(CN4CCOCC4)cc3c21 [pemigatinib] | 0.908
Cc1c(-c2ccc(O)cc2)n(Cc2ccc(OCCN3CCCCCC3)cc2)c2ccc(O)cc12 [Bazedoxifene Acetate] + CCN1C(=O)N(c2c(F)c(OC)cc(OC)c2F)Cc2cnc3[nH]c(CN4CCOCC4)cc3c21 [pemigatinib] | 1.07
Cc1c(-c2ccc(O)cc2)n(Cc2ccc(OCCN3CCCCCC3)cc2)c2ccc(O)cc12 [Bazedoxifene HCl] + CCN1C(=O)N(c2c(F)c(OC)cc(OC)c2F)Cc2cnc3[nH]c(CN4CCOCC4)cc3c21 [pemigatinib] | 0.992
C=C[C@]1(C)C[C@@H](OC(=O)CSC(C)(C)CNC(=O)[C@H](N)C(C)C)[C@]2(C)[C@H](C)CC[C@]3(CCC(=O)[C@H]32)[C@@H](C)[C@@H]1O [Valnemulin HCl] + CCN1C(=O)N(c2c(F)c(OC)cc(OC)c2F)Cc2cnc3[nH]c(CN4CCOCC4)cc3c21 [pemigatinib] | 1.02
CCc1cc2c(cc1CC)CC(NC[C@H](O)c1ccc(O)c3[nH]c(=O)ccc13)C2 [Indacaterol Maleate] + CCN1C(=O)N(c2c(F)c(OC)cc(OC)c2F)Cc2cnc3[nH]c(CN4CCOCC4)cc3c21 [pemigatinib] | 0.877
Cc1cc(C(C)Nc2ccccc2)c2nc(N3CCOCC3)cc(=O)n2c1 (configuration not stated) + CCN1C(=O)N(c2c(F)c(OC)cc(OC)c2F)Cc2cnc3[nH]c(CN4CCOCC4)cc3c21 [pemigatinib] | 0.86
N[C@H]1CC[C@H](N[C@@H]2C[C@H]2c2ccccc2)CC1 + CCN1C(=O)N(c2c(F)c(OC)cc(OC)c2F)Cc2cnc3[nH]c(CN4CCOCC4)cc3c21 [pemigatinib] | 0.887
NC1(Cc2ccc(Cl)cc2)CCN(c2ncnc3[nH]ccc23)CC1 + CCN1C(=O)N(c2c(F)c(OC)cc(OC)c2F)Cc2cnc3[nH]c(CN4CCOCC4)cc3c21 [pemigatinib] | 1.01
CCCCOc1ccc(C(=O)Nc2ccc(F)cc2F)cc1 + CCN1C(=O)N(c2c(F)c(OC)cc(OC)c2F)Cc2cnc3[nH]c(CN4CCOCC4)cc3c21 [pemigatinib] | 0.938
Nc1nc(OCc2cc(Br)cs2)c2[nH]cnc2n1 [Lomeguatrib] + CCN1C(=O)N(c2c(F)c(OC)cc(OC)c2F)Cc2cnc3[nH]c(CN4CCOCC4)cc3c21 [pemigatinib] | 0.956
CC(C)Oc1ccc2c(=O)c(-c3ccccc3)coc2c1 [Ipriflavone (Osteofix)] + CCN1C(=O)N(c2c(F)c(OC)cc(OC)c2F)Cc2cnc3[nH]c(CN4CCOCC4)cc3c21 [pemigatinib] | 0.975
Cc1cc(Nc2cc(N3CCN(C)CC3)nc(Sc3ccc(NC(=O)C4CC4)cc3)n2)n[nH]1 [VX-680 (Tozasertib, MK-0457)] + CCN1C(=O)N(c2c(F)c(OC)cc(OC)c2F)Cc2cnc3[nH]c(CN4CCOCC4)cc3c21 [pemigatinib] | 0.863
Clc1ccc2nsnc2c1NC1=NCCN1 [Tizanidine HCl] + CCN1C(=O)N(c2c(F)c(OC)cc(OC)c2F)Cc2cnc3[nH]c(CN4CCOCC4)cc3c21 [pemigatinib] | 0.95
CCCCOc1cc(C(=O)OCCN(CC)CC)ccc1N [Oxybuprocaine HCl] + CCN1C(=O)N(c2c(F)c(OC)cc(OC)c2F)Cc2cnc3[nH]c(CN4CCOCC4)cc3c21 [pemigatinib] | 0.994
O=C1O[C@H]([C@@H](O)CO)C([O-])=C1O.[Na+] [Sodium ascorbate] + CCN1C(=O)N(c2c(F)c(OC)cc(OC)c2F)Cc2cnc3[nH]c(CN4CCOCC4)cc3c21 [pemigatinib] | 0.952

Structure (SMILES) | cell viability
O=[N+]([O-])c1ccc(Nc2nc(N3CCOCC3)nc(N3CCOCC3)n2)cc1 + CCN1C(=O)N(c2c(F)c(OC)cc(OC)c2F)Cc2cnc3[nH]c(CN4CCOCC4)cc3c21 [pemigatinib] | 0.95
N#C/C(=C1/SC[C@@H](c2ccc(Cl)cc2Cl)S1)n1ccnc1 [Luliconazole] + CCN1C(=O)N(c2c(F)c(OC)cc(OC)c2F)Cc2cnc3[nH]c(CN4CCOCC4)cc3c21 [pemigatinib] | 0.948
CCOC(=O)C1=C(N)Oc2ccc(Br)cc2C1C(C#N)C(=O)OCC (configuration not stated) + CCN1C(=O)N(c2c(F)c(OC)cc(OC)c2F)Cc2cnc3[nH]c(CN4CCOCC4)cc3c21 [pemigatinib] | 1.06
COC(=O)[C@H](Cc1ccccc1)NC(=O)[C@@H](N)CC(=O)O [Aspartame] + CCN1C(=O)N(c2c(F)c(OC)cc(OC)c2F)Cc2cnc3[nH]c(CN4CCOCC4)cc3c21 [pemigatinib] | 1.01
CCS(=O)(=O)c1cccc(-c2cc(C(=O)NC3CCN(C)CC3)c(C)c3[nH]c4ncc(C)cc4c23)c1 + CCN1C(=O)N(c2c(F)c(OC)cc(OC)c2F)Cc2cnc3[nH]c(CN4CCOCC4)cc3c21 [pemigatinib] | 0.296
C=C[C@](C)(O)CC[C@@H]1[C@@]2(C)CCCC(C)(C)[C@@H]2CC[C@@]1(C)O [Sclareol] + CCN1C(=O)N(c2c(F)c(OC)cc(OC)c2F)Cc2cnc3[nH]c(CN4CCOCC4)cc3c21 [pemigatinib] | 1.03
Clc1ccc(C2(c3ccc(-c4cn[nH]c4)cc3)CCNCC2)cc1 + CCN1C(=O)N(c2c(F)c(OC)cc(OC)c2F)Cc2cnc3[nH]c(CN4CCOCC4)cc3c21 [pemigatinib] | 0.938
C[C@]12CC[C@@H]3c4ccc(O)cc4C[C@@H](CCCCCCCCC[S+]([O-])CCCC(F)(F)C(F)(F)F)[C@H]3[C@@H]1CC[C@@H]2O (some centres not stated) [Fulvestrant] + CCN1C(=O)N(c2c(F)c(OC)cc(OC)c2F)Cc2cnc3[nH]c(CN4CCOCC4)cc3c21 [pemigatinib] | 0.919
CNC(=O)[C@@H](NC(=O)[C@H](CC(C)C)[C@H](O)C(=O)NO)C(C)(C)C [Marimastat(BB-2516)] + CCN1C(=O)N(c2c(F)c(OC)cc(OC)c2F)Cc2cnc3[nH]c(CN4CCOCC4)cc3c21 [pemigatinib] | 0.981
CCCOc1ccc(C(=O)OCCN(CC)CC)cc1N [Proparacaine HCl] + CCN1C(=O)N(c2c(F)c(OC)cc(OC)c2F)Cc2cnc3[nH]c(CN4CCOCC4)cc3c21 [pemigatinib] | 0.978
CC(C)C[C@H](NC(=O)CNC(=O)c1cc(Cl)ccc1Cl)B1OC(=O)C(CC(=O)O)(CC(=O)O)O1 + CCN1C(=O)N(c2c(F)c(OC)cc(OC)c2F)Cc2cnc3[nH]c(CN4CCOCC4)cc3c21 [pemigatinib] | 0.0198
CC[C@@H](CO)NCCN[C@@H](CC)CO [Ethambutol HCl] + CCN1C(=O)N(c2c(F)c(OC)cc(OC)c2F)Cc2cnc3[nH]c(CN4CCOCC4)cc3c21 [pemigatinib] | 0.882
CCN(CC)CCCCNc1ncc2cc(-c3cc(OC)cc(OC)c3)c(NC(=O)NC(C)(C)C)nc2n1 + CCN1C(=O)N(c2c(F)c(OC)cc(OC)c2F)Cc2cnc3[nH]c(CN4CCOCC4)cc3c21 [pemigatinib] | 0.868
O=C(/C=C/c1ccc(O)c(O)c1)O[C@@H]1C[C@](O)(C(=O)O)C[C@@H](O)[C@H]1O [Chlorogenic Acid] + CCN1C(=O)N(c2c(F)c(OC)cc(OC)c2F)Cc2cnc3[nH]c(CN4CCOCC4)cc3c21 [pemigatinib] | 0.936
C[C@@H]1COC(Nc2ccc3ncnc(Nc4ccc(OCc5nccs5)c(Cl)c4)c3c2)=N1 [Varlitinib] + CCN1C(=O)N(c2c(F)c(OC)cc(OC)c2F)Cc2cnc3[nH]c(CN4CCOCC4)cc3c21 [pemigatinib] | 0.806
N#C/C(=C\c1ccc(O)c(O)c1)C(=O)NCc1ccccc1 [AG-490 (Tyrphostin B42)] + CCN1C(=O)N(c2c(F)c(OC)cc(OC)c2F)Cc2cnc3[nH]c(CN4CCOCC4)cc3c21 [pemigatinib] | 0.948
C#C[C@]1(O)CC[C@H]2[C@@H]3CCC4=CC(=O)CC[C@@H]4[C@H]3CC[C@@]21CC [Levonorgestrel] + CCN1C(=O)N(c2c(F)c(OC)cc(OC)c2F)Cc2cnc3[nH]c(CN4CCOCC4)cc3c21 [pemigatinib] | 1.07
CC(=O)OCC(=O)[C@H]1CC[C@H]2[C@@H]3CCC4=CC(=O)CC[C@]4(C)[C@H]3CC[C@]12C [Deoxycorticosterone acetate] + CCN1C(=O)N(c2c(F)c(OC)cc(OC)c2F)Cc2cnc3[nH]c(CN4CCOCC4)cc3c21 [pemigatinib] | 0.932
